Consider eight compounds from PubChem BioAssay AID1963865 (Molecular Pharmacology Branch, DTP, NCI, 2024).

The assay concerns KRAS PDC multicell spheroid viability. In words: Anticancer human tumor 825966-067-R-J1-PDC patient-derived colon carcinoma cell line growth inhibition [KRAS2]. Conditions: for viability, T/C: stronger effect = lower value; for IC50: compound alone. The text has this:
Multicellular complex tumor spheroid response to RAS pathway inhibitors in combination with a targeted agents in patient-derived cell lines with oncogenic KRAS variants from multiple cancer types
A high-throughput screen of multi-cell type tumor spheroids was designed to identify active combinations of targeted small molecules and KRAS pathway inhibitors. Complex spheroids include a stromal component modeled by human endothelial cells (HUVEC) and fibroblasts modeled by human mesenchymal stem cells (MSCs). The concentration ranges selected for each drug and investigational agent were based upon clinically achievable concentrations if the clinical Cmax of the agent was known.
Compounds. The drugs and investigational agents: BI-3406 (NSC825286), BAY-293 (NSC824723), batoprotafib (TNO155; NSC825523), sotorasib (AMG 510; NSC818433), MRTX1257 (NSC819558), elimusertib (BAY 1895344; NSC800525), molibresib (GSK525762; NSC774829), temuterkib (LY3214996; NSC803410), venetoclax (NSC766270), alisertib (NSC759677), olaparib (NSC753686), talazoparib (NSC767125), erdafitinib (NSC781556), ipatasertib (NSC767898), cabozantinib (NSC761068), nintedanib (NSC756659), abemaciclib (NSC768073), docetaxel (NSC628503), trametinib (NSC758246), and sapanisertib (NSC764658) were obtained from the National Cancer Institute (NCI) Developmental Therapeutics Program Chemical Repository. The FDA-approved anticancer drug set is available from the Developmental Therapeutics Program. […] The stock solutions were prepared in dimethyl sulfoxide (DMSO, Sigma-Aldrich, St. Louis, MO, cat. D2650) at 800-fold the tested concentration and stored at -70 degrees C prior to their use. All drugs and investigational agents were tested over a range starting from a high concentration at or near the clinical Cmax and decreasing in half-log increments. If the clinical Cmax for an agent had not been determined, the highest concentration tested was 10 microM.
Cell Culture. All cells were maintained in an incubator at 37 degrees C and 5% CO2 with 95% humidity. The PDC lines were cultured according to standard operating procedures established by the NCI PDMR (https://pdmr.cancer.gov/sops/default.htm). Briefly, all PDCs were thawed and cultured in Matrigel-coated flasks prepared with a working solution of 1X Ham's F-12 nutrient mix, without supplementation (Invitrogen, Waltham, MA, cat. 11765054), 100 U/mL penicillin-streptomycin (Invitrogen, cat. 15140122), and 2.5% Matrigel (Corning Inc., Corning, NY, cat. 354248) for the first three passages. All PDCs were cultured in complete DMEM/F-12 media containing advanced DMEM/F-12 (Invitrogen, cat. 12634028), 4.9% defined fetal bovine serum, heat inactivated (HyClone Laboratories Inc., Logan, UT, cat. SH30070.03HI), 389 ng/mL hydrocortisone (Sigma-Aldrich, cat. H4001), 9.7 ng/mL human EGF recombinant protein (Invitrogen, cat. PHG0313), 23.4 microg/mL adenine (Sigma-Aldrich, cat. A2786), 97.3 U/mL penicillin-streptomycin (Invitrogen, cat. 15140122), 1.9 mM L-glutamine (Invitrogen, cat. 25030081), and 9.7 microM Y-27632 dihydrochloride (Tocris Bioscience, Bristol, United Kingdom, cat. 1254). The PDCs were cultured in complete DMEM/F12 media without 9.7 microM Y-27632 dihydrochloride for at least two passages prior to the screen. The established cell line HOP-62 was cultured in RPMI 1640 medium, HEPES (Invitrogen, cat. 22400105) with 10% defined fetal bovine serum (HyClone Laboratories Inc., cat. SH30070.03) and 2 mM L-glutamine (Invitrogen, cat. 25030081). The pooled donor HUVEC were cultured in endothelial cell growth medium 2 (PromoCell, Heidelberg, Germany, cat. C-22011) and the hMSC were cultured in mesenchymal stem cell growth medium 2 (PromoCell, cat. C-28009). For all experiments, HUVEC and hMSC were used at passages </=5, while the malignant cell lines were used at passages </=15. […]

For part of its entries the source gives two or more results. This is not the full list of results. The source may hold further records. Results that share an entry are repeated measurements (runs, samples, wells, individuals or studies). Counts like (3×) give the number of equal values in this list. Dates in brackets are months of testing.
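Note: spheroids exposed to compounds for 7 days.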
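Throughout, for viability, T/C: 100% = DMSO vehicle control viability.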

Turning to `Cn1nccc1Nc1nccc(-c2cc3c(s2)C(C)(C)N(CCN2CCOCC2)C3=O)n1`, the viability, T/C (compound alone 1 µM) is recorded as 114, 110, 119, 123, 97.6%.
`O=C(c1cc(Cc2n[nH]c(=O)c3ccccc23)ccc1F)N1CCN(C(=O)C2CC2)CC1`: the viability, T/C is 103 (2×), 110, 95.3, 83.8% (compound alone 0.0316 µM); 108, 103, 96.3, 67.4, 76.1% (compound alone 0.316 µM); 110, 78.4, 88, 89, 69.4% (compound alone 1 µM); 88, 97.9, 82, 63.4, 63.6% (compound alone 10 µM).
In the case of `COc1cc(OC)cc(N(CCNC(C)C)c2ccc3ncc(-c4cnn(C)c4)nc3c2)c1`, the IC50 (commonly the midpoint of a concentration-inhibition curve) is 6.16 µM, 7.24 µM, > 10 µM, 5.43 µM, 6.29 µM. Further, the viability, T/C (compound alone 3.16 µM) is given as 157, 109, 113, 112, 138%. For the same compound, for the setting “compound alone 10 µM”, the viability, T/C is on record as 5.04, 32.3, 52, 3.85, 17.3%.
Consider `CN(C)C/C=C/C(=O)Nc1cc2c(Nc3ccc(F)c(Cl)c3)ncnc2cc1O[C@H]1CCOC1`, for which the viability, T/C is listed as 127, 92.5, 80.7, 94.4, 103% (compound alone 0.000316 µM); 125, 99.7, 97.4, 105, 102% (compound alone 0.001 µM); 105, 115, 101, 85.6, 87.6% (compound alone 0.00316 µM); 111, 98.4, 72.7, 79.3, 82% (compound alone 0.01 µM); 116, 104, 90, 86.9, 98.8% (compound alone 0.0316 µM).
In the case of `COc1cc2nccc(Oc3ccc(NC(=O)C4(C(=O)Nc5ccc(F)cc5)CC4)cc3)c2cc1OC`, the viability, T/C (compound alone 0.1 µM) was 73.5, 104, 101, 93.7, 92.9%.
Consider `CC1COCCN1c1cc(-c2ccnn2C)c2ccnc(-c3ccn[nH]3)c2n1` (stereo not drawn), for which the IC50 is 215 nM, 3.16 µM, > 3.16 µM. Also, the viability, T/C (compound alone 0.0316 µM) was 135, 124, 111, 107, 97.1%. The viability, T/C (compound alone 0.1 µM) is 91.7, 59.1, 51.9, 85.7, 68.9%. Also, the viability, T/C (compound alone 0.316 µM) is 70.7, 38, 64.3, 77.3, 65%. The viability, T/C (compound alone 1 µM) is listed as 59.4, 38.1, 66.6, 46.1, 82.4%.
Take `C=CC(=O)N1CCN(c2nc(OCC3CCCN3C)nc3c2CCN(c2cccc4cccc(C)c24)C3)CC1CC#N` (stereo not drawn): the viability, T/C is 109 (2×), 91.4, 98.3, 80.7, 89.1, 95.3, 90, 77.9, 91.5, 84.9% [2021-08] and 89.4, 91.1, 111, 91.6, 78.2, 81.1% [2021-09] (compound alone 0.0316 µM); 94.8, 83.3, 90.8, 84.8, 89.2, 81.4, 97.6, 82.2, 89.8, 96.8, 62.1% [2021-08] and 81.3, 88.7, 90.9, 96.5, 70.8, 82.4% [2021-09] (compound alone 0.316 µM); 97.5, 85.2, 104, 86.4, 88.2, 92.7, 87.1, 79.9, 85.6, 96.8, 83.2% [2021-08] and 95.1, 107, 103, 109, 78.2, 92.9% [2021-09] (compound alone 1 µM); 115, 83.2, 126, 79, 82.3, 68.1, 75.5, 83.4, 51.7, 106, 76.9% [2021-08] and 68.1, 126, 121, 34.6, 86, 89.6% [2021-09] (compound alone 3.16 µM).
Turning to `CNCc1ccccc1-c1csc(C(C)Nc2nc(C)nc3cc(OC)c(OC)cc23)c1` (stereo not drawn), the viability, T/C runs as follows: (compound alone 0.1 µM) 89.6, 98.4, 99.6, 86.1, 88.8, 97, 74.2, 95.7, 82.6, 88.5, 91% [2021-08] and 109, 92.4, 91.9, 85.5, 83.5, 116% [2021-09]; (compound alone 0.316 µM) 90.4, 100, 85.8, 90.2, 91.8, 93.8, 103 (2×), 96.3, 81.3, 78.3% [2021-08] and 100, 93.7, 85.9, 79.5, 90.1, 105% [2021-09]; (compound alone 1 µM) 73.5, 112, 81, 96.1, 91, 98, 111, 98.5, 113, 80.2, 73.3% [2021-08] and 108, 71.2, 92.5, 85.1, 97.1, 107% [2021-09]; (compound alone 3.16 µM) 89.1, 65.6, 23.1, 30.3, 34.6, 2.21, 50.3, 58.7, 47.5, 57.8, 31.6% [2021-08] and 72.2, 1.97, 26.9, 66, 88.2, 89.9% [2021-09]. Besides, the IC50 (run of 09/02/2021) was 2.08 µM and 4.5, 1.42, 4.19, 5.28 µM [2021-09].
